Assay results reported in PubChem BioAssay AID1346378 (National Center for Advancing Translational Sciences (NCATS), 2018).
Screen size: about 420,000 compounds; about 540 (0.13%) were called active. Inconclusive results, whose numbers are uncertain, are shown with a selection of clear calls. No stated cut-off is given here; in the data, active means activity change below about -50%; inconclusive means mostly about -30% to -49%; inactive means weaker than that.

Each molecule was assayed against Phosphatidylinositol 4-kinase type 2-alpha (Homo sapiens) (UniProt Q9BTU6) (assay: qHTS for small molecular inhibitors of PI4K2A). Details: purified PI4K2A, ADP-Glo luminescence, 1 h; at 76.9 µM, active compounds read low.
UniProt Q9BTU6, sequence (Q9BTU6 whole entry, looked up): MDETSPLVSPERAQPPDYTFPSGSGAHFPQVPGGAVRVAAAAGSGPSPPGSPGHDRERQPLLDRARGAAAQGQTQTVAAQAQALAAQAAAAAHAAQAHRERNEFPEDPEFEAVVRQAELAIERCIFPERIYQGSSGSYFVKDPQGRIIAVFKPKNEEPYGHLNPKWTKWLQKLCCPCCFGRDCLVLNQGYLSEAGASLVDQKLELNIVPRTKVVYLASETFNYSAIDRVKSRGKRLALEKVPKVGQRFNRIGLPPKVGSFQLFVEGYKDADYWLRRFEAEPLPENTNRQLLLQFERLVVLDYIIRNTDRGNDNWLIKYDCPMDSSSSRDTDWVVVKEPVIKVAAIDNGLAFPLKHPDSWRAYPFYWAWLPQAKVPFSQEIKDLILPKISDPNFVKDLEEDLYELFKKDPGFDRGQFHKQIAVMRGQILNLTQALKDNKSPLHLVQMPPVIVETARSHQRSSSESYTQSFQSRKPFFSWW
Text: The phosphatidylinositol 4-phosphate (PI4P) is emerging as a key regulator of lipid transfer in ER-membrane contact sites. The four different phosphatidylinositol 4-kinase (PI4K) enzymes generate PI4P in different membrane compartments supporting distinct cellular processes many of which are crucial for the maintenance of cellular integrity but also hijacked by intracellular pathogens. The goal of this screening project is to search for small molecular inhibitors of PI4K2A based on a high throughput screening strategy.The ADP-Glo assay was used as a starting point to develop a miniaturized version for HTS applications. To implement the HTS screen, the PI4K ADP-Glotrade mark Kinase assay (Promega, V9102) was miniaturized for the 1536-well format used at NCGC.
For the robotic screening, the ADP-Glo assay using the ADP-Glotrade mark Kinase Assay kit from Promega was miniaturized and optimized on 1536-well white solid bottom plates (Greiner Bio-one). The substrate, 1.2 mM PI, prepared in the assay buffer (40mM Tris pH7.5, 20mM MgCl2, 1mM EGTA, 0.4% Triton X-100, 0.5mM DTT, 0.5mg/ml BSA) and PI4K2A enzyme, diluted also in the assay buffer to 4ug/mL, were dispensed onto the plates in equal volumes (1microl/well), pinned with 23 nL/well tested compounds or control followed by dispensation of 1microl/well 300microM ATP. The plates were incubated for one hour. Then, 2 µL/well of ADP-Glo reagent was added and incubated for 40 minutes. Next, 4microL/well of Kinase Detection Buffer was added to the plates and incubated for additional 40 minutes. All incubation steps were performed at ambient temperature. The resulting luminescence signal was measured on Viewlux plate reader (PerkinElmer). Adenosine, a partial non-specific inhibitor, was used as a positive control at 100microM final concentration to assess the assay's quality and plate-to-plate reproducibility. We also used "no enzyme" control to gauge the assay's maximal potential inhibition (IC100).
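Further: -100% = wells without enzyme as full effect.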

| Compound | activity change, negative = inhibition |
| --- | --- |
| COc1ccc(C=C2CCc3ccccc3C2=O)cc1 | active: -82.7% |
| COC(=O)Cc1[nH]n(-c2nc3ccccc3s2)c(=O)c1C(C)=Nc1ccc(Cl)cc1 | inconclusive: -37.4% |
| CC1=C/C(=C(/c2cc(C)c(O)c(Br)c2)c2ccccc2S(=O)(=O)O)C=C(Br)C1=O | inconclusive: -48.5% |
| CN1c2ccccc2C(C)(C)C12C=Nc1c(ccc3ccccc13)O2 (configuration not stated) | inconclusive: -34.4% |
| CCOc1ccc(S(=O)(=O)N(CC(=O)N/N=C/c2ccc(-c3ccc([N+](=O)[O-])cc3)o2)c2ccccc2)cc1 | inconclusive: -42% |
| Cc1ccc(/C=C/c2nc3ccccc3n2S(=O)(=O)c2cccc(Cl)c2)cc1 | active: -63.1% |
| N/C(=N\OC(=O)c1ccc(Cl)cc1)c1[nH]ncc1Br | inconclusive: -33% |
| CC1=C/C(=C(\c2cc(C)c(O)c(Br)c2)c2ccccc2S(=O)(=O)O)C=C(Br)C1=O | active: -69.4% |
| Cc1ccc(Cc2cnc(N)s2)o1 | inconclusive: -35.9% |
| O=C(Nc1cccc(C(=O)Nc2ccc(S(=O)(=O)O)c3cc(S(=O)(=O)O)cc(S(=O)(=O)O)c23)c1)Nc1cccc(C(=O)Nc2ccc(S(=O)(=O)O)c3cc(S(=O)(=O)O)cc(S(=O)(=O)O)c23)c1 | inconclusive: -33.8% |
| CC1=C(C(=O)Nc2ccccc2)C(c2ccc(C)o2)n2c(s/c(=C/c3ccccc3)c2=O)=N1 (configuration not stated) | inconclusive: -39.3% |
| CC(C)Oc1ccc(C(=O)Nc2nc3ccccc3[nH]2)cc1 | active: -56% |
| Cc1ccc(C(=O)c2c(C)oc3c2C(=O)C(=O)c2ccccc2-3)cc1 | active: -63.4% |
| CC1=C(C(N)=O)C(c2ccc(C(C)C)cc2)n2nc(SCc3ccccc3)nc2N1 (configuration not stated) | inconclusive: -30.6% |
| CC(=O)c1sc2nc(-c3ccco3)ccc2c1N | inactive: -8.4% |
| O=C(COc1ccc2ccccc2c1)NNC(=O)c1ccc([N+](=O)[O-])cc1 | inconclusive: -48.6% |
| COC(=O)N/N=C1/C/C(=N\NC(=O)OC)c2ccccc21 | inconclusive: -30.1% |
| CCOc1cc(CNc2ccc(O)cc2)ccc1OCc1ccc(Cl)cc1Cl | inconclusive: -48.7% |
| CCc1nc2ccccc2n1CCCCOc1ccc(C)cc1 | inconclusive: -33.7% |
| O=S(=O)(Nc1c(S(=O)(=O)c2ccccc2)c2nc3ccccc3nc2n1C1CCCCC1)c1ccccc1 | inconclusive: -35.1% |
| CC1=NN(c2cccc(Cl)c2)C(=O)C1 | active: -59.8% |
| COc1cc(C)c2c(c1C=O)Oc1c(c(C)c(O)c3c1C(O)OC3=O)OC2=O (configuration not stated) | inconclusive: -30.1% |
